Measured values published in the supplement of paper PMC10338343.
± gives the standard deviation. The full ranking holds about 3,700 sequences; the median of “pre-steady-state target cleavage rate” is about 0.02, and the highest 2% start at about 0.23. The entries are a selection whose mix differs from that of the whole data set.

test system: MILI (PIWIL2) piRISC loaded with Kctd7 piRNA (26 nt); assay: pre-steady-state target cleavage rate (min^-1); MIWI and MILI are mouse PIWI proteins and EfPiwi is from a freshwater sponge; tags in brackets are library labels; higher = faster piRNA-guided slicing of the target; conditions: guide: Kctd7 piRNA 5'p-UGUUAAUCUCUCAGAGAAGGUGACAG; auxiliary factor: 500 nM mouse GTSF1
Method: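 Cleave-'n-Seq: a library of target RNAs (target site embedded in constant flanks, ACAGCATTCCGCGTTAGTGATATCCG... 5' flank; DNA-blocked outside the site) at 0.1 nM was incubated with 1 nM active mouse MILI or MIWI piRISC (synthetic 5'-monophosphorylated piRNA guide) with or without 500 nM mouse GTSF1 at 33 °C for 1 min to 16 h. Uncleaved targets were sequenced and normalised to non-target controls, and the pooled three trials were fitted to a burst-and-steady-state model to give the pre-steady-state cleavage rate (min^-1; k3 is constrained to at most 1e-4). Sequence is the target site only; target names encode pairing extent (gX:gY) and contiguous / 1-mismatch / 2-mismatch / bulge geometry. Fits with R² ≤ 0 are excluded.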

Row | Sequence | pre-steady-state target cleavage rate
1 | UAGUGAGUCACCAUCUCUGAGAGAUUUACA | 0.116 ± 0.023
2 | UAGUGACAGACCUUUUCUGAGAGAUUAACA | 0.0857 ± 0.011
3 | UAGUGACACACCUUCUCUGGGAGAUUAACA | 0.141 ± 0.013
4 | UAGUGAGUCACCCUCUCUGAGAGAUUAACA | 0.179 ± 0.021
5 | UAGUGACACACGUUCUCUGAGAGAAUAACA | 0.0308 ± 0.01
6 | UAGUGUAGUCACCUUCUCUGAGAGAUUAACA | 0.219 ± 0.019
7 | UAGUGACACUCCUUCUCUGACAGAUUAACA | 0.0452 ± 0.0059
8 | UAGUGACACACCUUCUCUGAGACUAUAUGA | < 0.0001
9 | UAGUGAGUGACCUUCACUGAGAGAUUAACA | 0.105 ± 0.014
10 | UAGUGACAGACCUUGUCUGAGAGAUUAACA | 0.0481 ± 0.0096
11 | UAGUGACAGACCUUCUCUGAGAGAUUAACCA | 0.116 ± 0.018
12 | UAGUGACUCACCUACUCUGAGAGAUAAACA | 0.0326 ± 0.011
13 | UAGUGACAGUCCUUCUGUGAGAGAUUAUCA | 0.00527 ± 0.0037
14 | UAGUGUGUGAGCUUCUCUGAGAGAUUAACA | 0.0828 ± 0.011
15 | UAGUCUGUCACCUUCUCUGAGAUAUUAACA | 0.122 ± 0.018
16 | UAGUGACUGACCUUCUCUGAGAGAUUAUGA | 0.0133 ± 0.0064
17 | UAGUGACAGUCCAUCACUGAGAGAUUAACA | 0.0134 ± 0.0039
18 | UAGUGACUGACCUUCUCUGAGAGAAUAACA | 0.0354 ± 0.012
19 | UAGUGAGUCACCUUCUGUGAGAGAUUUACA | 0.0322 ± 0.014
20 | UAGUGAGUCACCAUCUCUGAGAGAUUAAGA | 0.0541 ± 0.017
21 | UAGUGACAGAUCUUCUCUGAGAGAUUAACA | 0.0797 ± 0.0085
22 | UAGUGAGUCAGCAUCUCUGAGAGAUUAACA | 0.105 ± 0.0096
23 | UAGUGACAGUGCUUCUCUGAGAGAAUUAACA | 0.0127 ± 0.0041

Row | Sequence | pre-steady-state target cleavage rate
24 | UAGUGUGACACCUUCUCUGAGAGUUUAACA | 0.123 ± 0.038
25 | UAGUCUGUCAGCUUCUCUGAGAGAUUAAGA | 0.0299 ± 0.0077
26 | UAGUGACAGUGCAUCACUGAGAGAUUAACA | 0.00615 ± 0.0028
27 | UAGUGACAGUGGAUCUGUGAGUGAUUAACA | < 0.0001
28 | UAGUGACACACCUUCUCUGAGAGAUUAGCA | 0.0856 ± 0.021
29 | UAGUGAGUCACCAUCUCAGAGAGAUUAACA | 0.0744 ± 0.0093
30 | UAGUGACAGUCCUUCUCUGAGAGAUUAUCA | 0.0227 ± 0.0061
31 | UAGUGACAGUCCUUCUCUGAGAGAUUAACA [g2:g20:cont:t1A] | 0.0942 ± 0.0076
32 | UAGUGUGUCACCUACUCUGACAGAUUAACA | 0.0305 ± 0.006
33 | UAGUCAGUCACCUUCUCAGAGAGAUUAACA | 0.184 ± 0.019
34 | UAGUGACUCACCUUCUCUCAGAGUUUAACA | 0.0241 ± 0.0079
35 | UAGUGACAGUCCUUCUCUGAGUCAUUAAGA | < 0.0001
36 | UAGUCUGUGACCUUCUCUGAGAGAUUAAGA | 0.0692 ± 0.011
37 | UAGUGACACAGCUUCUCUGAGAGAUUAAGA | 0.0257 ± 0.0046
38 | UAGUGUGUCACCUUCAGUGAGAGAUUAACA | 0.0945 ± 0.014
39 | UAGUGUAUCACCUUCUCUGAGAGAUUAACA | 0.14 ± 0.015
40 | UAGUGACAGUCCUAGUCUGAGAGAUUAACA | 0.0204 ± 0.0034
41 | UAGUCACUCACCUUCUCUGAGAGAUUUUGA | 0.0174 ± 0.0076
42 | UAGUGACACACCUGCUCUGAGAGAUUAACA | 0.128 ± 0.0093
43 | UAGUGACACACCUUCUCAGAGAGAUUAUGA | 0.0269 ± 0.01
44 | UAGUGUGUCACCUUCUCUGUGAGAAUAACA | 0.0183 ± 0.0076
45 | UAGUGACAGACCUGCUCUGAGAGAUUAACA | 0.0943 ± 0.014
46 | UAGUGUGUCACCUUCUCACAGAGAUUAACA | 0.0718 ± 0.021

Row | Sequence | pre-steady-state target cleavage rate
47 | UAGUGACUCACCUUCUCACUGAGAUUAACA | 0.00822 ± 0.0033
48 | UAGUGACACUCCUUCUCUGAGAGAUAAACA | 0.0379 ± 0.0083
49 | UAGUGACAGUCCUUCUCUGAGAGAUUAACC [g2:g20:cont:t1C] | 0.0605 ± 0.01
50 | UAGUGUGUCACCUUCUCUGAGUGAUUAACA | 0.00848 ± 0.0049
51 | UAGUCUGUCUCCUUCUCUGAGAGAAUAACA | 0.0604 ± 0.014
52 | UAGUGACAGUGGAUCUCUGAGAGUAUAACA | < 0.0001
53 | UAGUGACAGACCUUCUCUGUCAGAUUAACA | 0.013 ± 0.0043
54 | UAGUGAGUCACCUACUCUGAGAGAUUAAGA | 0.0791 ± 0.018
55 | UAGUGACACACCAUCUCUGAGAGUUUAACA | 0.0726 ± 0.021
56 | UAGUGACAGUGGUCUCUCUGAGAGAUUAACA | 0.00439 ± 0.0021
57 | UAGUGUGUCACCUACUGUGAGAGAUUAACA | 0.112 ± 0.0091
58 | UAGUGACAGACACUUCUCUGAGAGAUUAACA | 0.0311 ± 0.0079
59 | UAGUGACAGAGCUACUCUGAGAGAUUAACA | 0.0145 ± 0.0035
60 | UAGUGACAGUGCUUCUCUCAGACAUUAACA | 0.00361 ± 0.0031
61 | UAGUGACAGACCUUCACUGAGAGUUUAACA | 0.0174 ± 0.008
62 | UAGUGUGUCACCAUCUCUGAGAGAUUUACA | 0.158 ± 0.033
63 | UAGUGACAGUCCUUUCUGAGAGAUUAACA | 0.0132 ± 0.0041
64 | UAGUGAGUGUCCUUCUCUGAGAGAUUAAGA | 0.0291 ± 0.01
65 | UAGUGAGUCACCUACACUGAGAGAUUAACA | 0.113 ± 0.0093
66 | UAGUGACAGUCCUUCUCUGAGAGAUUAACU [g2:g20:cont:t1U] | 0.0552 ± 0.0092
67 | UAGUGAGCUCACCUUCUCUGAGAGAUUAACA | 0.15 ± 0.016
68 | UAGUGAGCCACCUUCUCUGAGAGAUUAACA | 0.218 ± 0.025
69 | UAGUGACACACCUUCUCAGAGAGAUAAACA | 0.0619 ± 0.013

Row | Sequence | pre-steady-state target cleavage rate
70 | UAGUCUGUCACCUUCUCUGAGAGAUUACA | 0.158 ± 0.036
71 | UAGUCUGACACCAUCUCUGAGAGAUUAACA | 0.11 ± 0.0062
72 | UAGUGACAGUGGAUCUCUGAGAGAUAUAACA | < 0.0001
73 | UAGUCUGUCACCUUCCUGAGAGAUUAACA | 0.0844 ± 0.028
74 | UAGUGACUCACCAUUCUCUGAGAGAUUAACA | 0.0839 ± 0.012
75 | UAGUGACAGUCCUUCUCUGUGAGAUAAACA | 0.00912 ± 0.0029
76 | UAGUGACAGACGUUCACUGAGAGAUUAACA | 0.0472 ± 0.0065
77 | UAGUGACAGUGCUUCUCUGAGAGAUUAAUA | 0.0297 ± 0.0083
78 | UAGUGAGUCUCCUUCUCUCAGAGAUUAACA | 0.0352 ± 0.0067
79 | UAGUGACAGUGGUUCUCUGUCAGAUUAACA | < 0.0001
80 | UAGUGACACACCUUCUAUGAGAGAUUAACA | 0.0667 ± 0.017
81 | UAGUGACUCACCUUCUCUGAGAGACUUAACA | 0.138 ± 0.018
82 | UAGUGACAGACGUUCUCAGAGAGAUUAACA | 0.0148 ± 0.0047
83 | UAGUCUGUCACGAUCUCUGAGAGAUUAUGA | 0.0053 ± 0.004
84 | UAGUGACACACCUUCUUCUGAGAGAUUAACA | 0.015 ± 0.0069
85 | UAGUCUGUCCCCUUCUCUGAGAGAUUAACA | 0.208 ± 0.017
86 | UAGUGACAGUGGAAGUCUGACACAUUAACA | < 0.0001
87 | UAGUGACAGUGGAUGUCUGAGAGAUUAUCA | < 0.0001
88 | UAGUGACAGUGGAAGAGAGAGAGAUUGAACA | < 0.0001
89 | UAGUGAGACACCUUCUCUGACAGAUUAACA | 0.0413 ± 0.0077
90 | UAGUGACACAGCUUCUCUGUGAGAUUAACA | 0.0271 ± 0.0057
91 | UAGUGACACACCUUCUCUGAGAGAUAUUCA | 0.0197 ± 0.0083
